The other results are listed elsewhere or left out. At the low end of the ranking, values are background and their order means little.

In the experiment the target is GST-SBP-SLBP (stem-loop binding protein) (UniProt Q14493). The experiment can be described thus: targeted RNA Bind-n-Seq.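 Further: DESeq read counts versus GST-SBP nonspecific binding control pulldown.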 The note with it: RBNS binding buffer: 25 mM Tris pH 7.5, 150 mM KCl, 3 mM MgCl2, 0.1% Tween, 0.5 mg/mL BSA, 1 mM DTT; 27 nM protein, 750 pM RNA pool; temperature not stated; high values mean tight binding.
With “GGUCACGUCUCAAUCAACUCACAGGAGGGGGGGAAAACCCCUUUACCCUCAAAUUCAACAGCUCGCAGUCAAG”, the binding signal (log2 fold change) was 0.0972. With “GGUCACGUCUCAAUCAACUCUUCCCCAGGAGUUUUCUCCUGCAUAUUCAACAGCUCGCAGUCAAG”, the binding signal (log2 fold change) was -0.147. On to “GGUCACGUCUCAAUCAACUCCAAAGAGGGGGGGAAAACCCCUUUGCCCUCAACAUCAACAGCUCGCAGUCAAG”, for which the binding signal (log2 fold change) is -0.181. On to “GGUCACGUCUCAAUCAACUCAACUUCCAGGGAAAGCCCUGGUUUAUUCAACAGCUCGCAGUCAAG”, for which the binding signal (log2 fold change) is -0.0219. To “GGUCACGUCUCAAUCAACUCAACUUCCAGGGAAAUCCCUGGUUAACUCAACAGCUCGCAGUCAAG” belongs 0.209; to “GGUCACGUCUCAAUCAACUCUUUUCCCAGGGAAACCCCUGGCUAUCUCAACAGCUCGCAGUCAAG”, 0.0965; to “GGUCACGUCUCAAUCAACUCUCUCGAGGGGGGGAAAACCCCUUUGCCCUCAUCUUCAACAGCUCGCAGUCAAG”, 0.151. With “GGUCACGUCUCAAUCAACUCUAUCCCCAGGGAAACCCCUGGUAUACUCAACAGCUCGCAGUCAAG”, the binding signal (log2 fold change) is -0.0603. As for “GGUCACGUCUCAAUCAACUCAAUUUCAGGAGUUUUCUCCUGCUAACUCAACAGCUCGCAGUCAAG”, the binding signal (log2 fold change) stood at 0.0694. Turning to “GGUCACGUCUCAAUCAACUCUAUUCCAGGAGUUUACUCCUGUUAUCUCAACAGCUCGCAGUCAAG”, the binding signal (log2 fold change) came to 0.294. Regarding “GGUCACGUCUCAAUCAACUCUAACGAGGGGGGGAAAACCCCUUUACCCUCACUCUCAACAGCUCGCAGUCAAG”, the binding signal (log2 fold change) is -0.423. Regarding “GGUCACGUCUCAAUCAACUCUACUCCCAGGGAAACCCCUGGUAAACUCAACAGCUCGCAGUCAAG”, the binding signal (log2 fold change) was 0.0851.

With “GGUCACGUCUCAAUCAACUCAAGUCCAGGAGUUUUCUCCUGCUAUCUCAACAGCUCGCAGUCAAG”, the binding signal (log2 fold change) was determined as 0.0372. For “GGUCACGUCUCAAUCAACUCAUCGCCAGGAGUUUCCUCCUGUUUUCUCAACAGCUCGCAGUCAAG”, the binding signal (log2 fold change) is -0.152.

Regarding “GGUCACGUCUCAAUCAACUCAUCCUCCAGGGAAACCCCUGGCUAAUUCAACAGCUCGCAGUCAAG”, the binding signal (log2 fold change) was -0.578. To “GGUCACGUCUCAAUCAACUCCUAAGAGGGGGGGAAAACCCCUUUACCCUCACACUCAACAGCUCGCAGUCAAG” belongs -0.0501.

“GGUCACGUCUCAAUCAACUCAAUCCCAGGAGUUUACUCCUGCAUAGUCAACAGCUCGCAGUCAAG”: the binding signal (log2 fold change) came to 0.0613. To “GGUCACGUCUCAAUCAACUCAUCGUCCAGGGAAACCCCUGGUUUUCUCAACAGCUCGCAGUCAAG” belongs -0.239; to “GGUCACGUCUCAAUCAACUCAUUUCCAGGAGUUUUCUCCUGCUAUCUCAACAGCUCGCAGUCAAG”, 0.0583. With “GGUCACGUCUCAAUCAACUCAGUCUCAGGAGUUUUCUCCUGCUUAUUCAACAGCUCGCAGUCAAG”, the binding signal (log2 fold change) worked out at 0.00172. For “GGUCACGUCUCAAUCAACUCAUCCUCCAGGGAAACCCCUGGUAAACUCAACAGCUCGCAGUCAAG”, the binding signal (log2 fold change) is 0.127. For “GGUCACGUCUCAAUCAACUCUAUCUCCAGGGAAAUCCCUGGUUAACUCAACAGCUCGCAGUCAAG”, the binding signal (log2 fold change) was -0.0179. As for “GGUCACGUCUCAAUCAACUCUUCUUCCAGGGAAACCCCUGGCAUACUCAACAGCUCGCAGUCAAG”, the binding signal (log2 fold change) amounted to 0.0197. Consider “GGUCACGUCUCAAUCAACUCUAUCCCCAGGGAAAUCCCUGGCAUACUCAACAGCUCGCAGUCAAG”, for which the binding signal (log2 fold change) is -0.137.

Regarding “GGUCACGUCUCAAUCAACUCACAUGAGGGGGGGAAAACCCCUUUACCCUCUUAAUCAACAGCUCGCAGUCAAG”, the binding signal (log2 fold change) is -0.0349. Take “GGUCACGUCUCAAUCAACUCAUCUCCAGGAGUUUACUCCUGUAAAUUCAACAGCUCGCAGUCAAG”: the binding signal (log2 fold change) was found to be 0.242. With “GGUCACGUCUCAAUCAACUCAAACGAGGGGGGGAAAACCCCUUUACCCUCUAUUUCAACAGCUCGCAGUCAAG”, the binding signal (log2 fold change) amounted to 0.113.

Regarding “GGUCACGUCUCAAUCAACUCUUUUUCAGGAGUUUUCUCCUGCAUAUUCAACAGCUCGCAGUCAAG”, the binding signal (log2 fold change) stood at 0.0174.

For “GGUCACGUCUCAAUCAACUCUUUCCCAGGAGUUUUCUCCUGUAAACUCAACAGCUCGCAGUCAAG”, the binding signal (log2 fold change) amounted to 0.0835.

As for “GGUCACGUCUCAAUCAACUCACACGAGGGGGGGAAAACCCCUUUACCCUCAUUAUCAACAGCUCGCAGUCAAG”, the binding signal (log2 fold change) came out at 0.295. To “GGUCACGUCUCAAUCAACUCUUUUUCAGGAGUUUACUCCUGCUUUCUCAACAGCUCGCAGUCAAG” belongs 0.152.

“GGUCACGUCUCAAUCAACUCAAUUCCCAGGGAAAUCCCUGGCUUACUCAACAGCUCGCAGUCAAG”: the binding signal (log2 fold change) was determined as 0.0187. On to “GGUCACGUCUCAAUCAACUCAAUCGAGGGGGGGAAAACCCCUUUACCCUCAACCUCAACAGCUCGCAGUCAAG”, for which the binding signal (log2 fold change) is -0.349. On to “GGUCACGUCUCAAUCAACUCACAAGAGGGGGGGAAAACCCCUUUACCCUCAUUUUCAACAGCUCGCAGUCAAG”, for which the binding signal (log2 fold change) is -0.452.

With “GGUCACGUCUCAAUCAACUCAUCCUCAGGAGUUUACUCCUGUAUUCUCAACAGCUCGCAGUCAAG”, the binding signal (log2 fold change) is -0.093.

“GGUCACGUCUCAAUCAACUCAAUCUCCAGGGAAAACCCUGGUUUUUUCAACAGCUCGCAGUCAAG”: the binding signal (log2 fold change) is -0.104. “GGUCACGUCUCAAUCAACUCUUUCUCCAGGGAAAGCCCUGGCAAUCUCAACAGCUCGCAGUCAAG”: the binding signal (log2 fold change) is -0.111.
